# Data from article PMC4336329 (PLoS ONE, 2015).
# The campaign covered roughly 310,000 compounds. About 2,200 (0.71%) showed an effect of 50% or more. The effect is printed as a negative number. Some of the results follow.
# Molecular target: human ether-à-go-go-related gene (hERG) potassium channel (human, UniProt Q12809)
# Test: primary screen, population patch clamp on CHO cells stably expressing hERG
# human ether-à-go-go-related gene (hERG) potassium channel, sequence (Q12809 whole entry, looked up): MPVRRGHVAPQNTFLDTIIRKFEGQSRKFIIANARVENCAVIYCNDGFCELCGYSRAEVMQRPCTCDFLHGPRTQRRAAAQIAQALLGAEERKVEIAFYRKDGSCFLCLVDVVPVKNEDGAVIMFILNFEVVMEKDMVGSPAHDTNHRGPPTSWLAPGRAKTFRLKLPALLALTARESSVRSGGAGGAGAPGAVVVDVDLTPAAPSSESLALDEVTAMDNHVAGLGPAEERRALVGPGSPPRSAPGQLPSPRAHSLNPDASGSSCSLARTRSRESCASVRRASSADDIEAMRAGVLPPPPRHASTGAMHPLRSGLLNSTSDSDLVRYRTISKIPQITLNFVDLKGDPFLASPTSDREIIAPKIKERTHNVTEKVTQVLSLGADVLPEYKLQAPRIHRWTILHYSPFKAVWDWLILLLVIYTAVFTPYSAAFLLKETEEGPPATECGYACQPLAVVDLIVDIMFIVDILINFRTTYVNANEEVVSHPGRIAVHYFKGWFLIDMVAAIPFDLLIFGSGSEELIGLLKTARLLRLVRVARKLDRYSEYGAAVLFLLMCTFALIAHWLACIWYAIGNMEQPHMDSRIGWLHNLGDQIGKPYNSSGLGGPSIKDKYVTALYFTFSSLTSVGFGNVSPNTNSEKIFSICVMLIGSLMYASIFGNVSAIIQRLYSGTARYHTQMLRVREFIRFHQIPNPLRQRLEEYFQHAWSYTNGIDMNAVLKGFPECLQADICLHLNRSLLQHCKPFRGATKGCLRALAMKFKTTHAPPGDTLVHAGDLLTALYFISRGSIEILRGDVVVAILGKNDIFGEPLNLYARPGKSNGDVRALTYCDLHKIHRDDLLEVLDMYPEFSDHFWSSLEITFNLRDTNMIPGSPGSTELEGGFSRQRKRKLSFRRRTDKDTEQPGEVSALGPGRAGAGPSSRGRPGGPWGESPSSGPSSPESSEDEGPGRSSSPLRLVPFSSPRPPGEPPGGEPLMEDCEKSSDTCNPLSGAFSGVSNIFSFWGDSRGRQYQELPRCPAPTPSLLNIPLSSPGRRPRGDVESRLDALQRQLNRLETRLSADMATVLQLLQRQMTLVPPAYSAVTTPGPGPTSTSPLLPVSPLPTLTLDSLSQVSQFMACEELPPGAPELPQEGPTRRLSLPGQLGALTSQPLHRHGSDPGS
row,Structure (SMILES),"hERG current change (%, negative = inhibition) at 1uM [%]"
1,Cn1c(C(=O)OCC(=O)NCCc2ccccc2)cc2sccc21,2
2,CN1CCN(S(=O)(=O)c2ccc3c(c2)C(C)(C)C(=O)N3C)CC1,14.3
3,Nc1nc(-c2ccc(Cl)cc2)cn1N,4.16
4,CCOc1ccc(N(CC(=O)Nc2nccs2)S(=O)(=O)c2c(C)noc2C)cc1,-7.09
5,Cc1ccc(/C=C(/NC(=O)c2ccccc2)C(=O)NC(Cc2c[nH]c3ccccc23)C(=O)O)cc1 (centres unmarked),8.26
6,COc1ccccc1C1CCN(C(=O)c2ccc(Cl)cc2)CC1,7.51
7,CC1=NN(c2ccccc2)C(=O)/C1=C/c1c(O)n(-c2ccc(F)cc2)[nH]c1=O,32.1
8,CCN(CC)CCCN(Cc1cc2cc(OC)ccc2[nH]c1=O)C(=O)Nc1ccccc1,-10.1
9,CCCCCCSc1nsc(NC(C)=O)n1,5.78
10,Cc1cccc(NC2=C(NCCO)C(=O)c3ccccc3C2=O)c1,5.16
11,CCOC(=O)c1c(C)[nH]c(C)c1C(=O)COC(=O)c1cccc(S(=O)(=O)NC)c1,8.39
12,CN(C)C1=NC(N(C)C)=NP(N(C)C)(N(C)C)=N1,14.1
13,CCN(CC)CC(=O)Nn1c(C)nc2c(ncn2-c2ccccc2)c1=O,9.39
14,Cc1cc(C)n(CC(=O)n2c3c(c4ccccc42)CCCC3)n1,9.96
15,COc1ccc(NS(=O)(=O)c2cccc(NC(=O)COc3ccc(OC)cc3)c2)cc1,12.2
16,O=C(Nc1ccc2ncccc2c1)c1ccccc1Br,13.5
17,CCOc1ccc(/C=N/NC(=O)c2cc3c(OC)cccc3[nH]2)cc1,12.4
18,Cc1[nH]nc(N)c1-c1ccc(Cl)cc1,3.97
19,CC1Cc2ccccc2N1C(=S)NC(=O)c1ccc(Cl)cc1Cl (centres unmarked),1.56
20,Cc1nc(NCCc2ccccc2)sc1C(=O)N(C)C,7.75
21,Cc1nc2c3ccccc3nc(NNC(=O)CCC(=O)N3CCC(C)CC3)n2n1,22.2
22,Cc1ccc(Cl)cc1-n1c(O)c(C=NCCCN2CCOCC2)c(=O)[nH]c1=O,12.1
23,CCOC(=O)c1ccc(NC(=S)Nc2cccc(N)n2)cc1,15.5

row,Structure (SMILES),"hERG current change (%, negative = inhibition) at 1uM [%]"
1,COC(=O)c1cc(C#N)c(Oc2ccccc2OC)nc1C,3.34
2,CCOc1cc(/C=C2\SC(=N)N(c3nonc3N)C2=O)ccc1OCCN1CCOCC1,14.5
3,Cc1c(NC(=O)c2cc(-c3ccccc3)on2)c(=O)n(-c2ccccc2)n1C,2.95
4,Cc1ccccc1Cn1cnc2ccccc21,6.15
5,COc1ccc(N2CCN(CCNC(=O)CCCn3c(=O)[nH]c4cc(Cl)ccc4c3=O)CC2)cc1,2.84
6,O=C(CNc1ccc(Br)cc1)NNC1=NCCC1,3.45
7,O=C(N/N=C/c1ccccc1OCc1ccccc1)c1cccnc1,11.1
8,Cc1noc(C)c1COC(=O)c1ccc(S(=O)(=O)NCc2ccco2)cc1,-1.54
9,CC(=O)Nc1nnc(SCC(=O)N2CCc3ccccc32)s1,18.1
10,O=C(NNc1nc2c(F)cccc2s1)c1ccccc1,14.5
11,Cn1cc([N+](=O)[O-])c(C(=O)Nc2ccc(Br)cn2)n1,-0.698
12,O=C(COCC(=O)NCc1ccccc1)NCc1ccccc1,0.482
13,NC(=S)N=Nc1c(O)n(CCCl)c2ccc(Br)cc12,-40.4
14,CCCNC(=O)NC(=O)CSc1nc(C)cs1,9.84
15,Cc1cccc(CN2C(=O)/C(=C\c3ccc(C(=O)NCCN4CCOCC4)cc3)Sc3ccccc32)c1,10.6
16,CC(OC(=O)Cn1c(C(F)(F)F)nc2ccccc21)C(N)=O (centres unmarked),18.4
17,Cc1ccc(NC(=O)COC(=O)c2cc(Cl)ccc2Cl)c(Br)c1,11.5
18,CCOc1cc(NC(=O)c2ccccn2)c(OCC)cc1NC(=O)c1ccc(Cl)cc1,17.8
19,COc1cc(C(C)=O)ccc1OC(=O)c1cc2cccc(OC)c2oc1=O,7.6
20,CCOC(=O)Cc1csc(NC(=O)CSc2ccc(Br)cc2)n1,10.5
21,CNC(=O)c1cc2cc(OC)ccc2oc1=N,10.9
22,CCc1cccc(NC(=O)C2CCN(S(=O)(=O)c3cccs3)CC2)c1,12.4
23,Cc1ccc(C(=O)NCC(=O)NNC(=O)CN(C)S(=O)(=O)c2ccc(Cl)cc2)s1,2.5

row,Structure (SMILES),"hERG current change (%, negative = inhibition) at 1uM [%]"
1,Cc1cccc(CSc2nc3c(c(=O)[nH]2)CCC3)c1,-8.39
2,COc1ccc(S(=O)(=O)Cc2ccc(C(=O)NCC(OC)OC)o2)cc1,16.5
3,CCCc1sc(N)nc1-c1ccc(Cl)cc1,18.4
4,Cc1ccccc1Cc1c(C)nc2c(C(=O)NCc3ccc4c(c3)OCO4)cnn2c1C,-3.77
5,COC(=O)C1=NN(c2cccc(C)c2)C2C(=O)N(c3ccccc3OC)C(=O)C12 (centres unmarked),7.06
6,CC(C)Cn1cnc2c(=O)oc3ccccc3c21,1.73
7,[O-]c1ccccc1-[n+]1c(-c2ccccc2)cc(-c2ccccc2)cc1-c1ccccc1,-7.12
8,O=C(COc1ccccc1Cl)c1ccc[nH]1,10.3
9,O=C(CC1C(=O)N(c2ccc(Cl)cc2)C(=S)N1CCc1ccncc1)Nc1ccc(F)cc1 (centres unmarked),6.64
10,Cc1cc(-c2nn(-c3ccccc3F)cc2CN2CCCC(CO)C2)c(C)s1 (centres unmarked),5.13
11,O=C(NCC(c1cccnc1)N1CCN(c2ccccc2)CC1)c1ccc2c(c1)OCO2 (centres unmarked),-0.194
12,O=C(NNC(=O)c1ccccc1Cl)c1ccc(-n2cncn2)c([N+](=O)[O-])c1,2.34
13,C=CCn1c(SCC(=O)NC(=O)NC)nnc1C1CCCCC1,9.82
14,Cc1cc(CN(C)C)c(O)c(C2(C)CCCCC2)c1,10.5
15,CC(Sc1ccc(S(=O)(=O)N(C)C)cn1)C(=O)NC1CCCC1 (centres unmarked),4.75
16,Cc1ccc(C#CC[N+]2(C)CCCCC2)cc1.[Br-],14.2
17,COc1ccc(S(=O)(=O)N2CCCCCC2)cc1C(=O)N(C)CC(=O)Nc1ccc(F)cc1,4.43
18,CN(CCCNC(=O)C1CCN(S(=O)(=O)N2CCC3(CC2)OCCO3)CC1)Cc1ccccc1,12.6
19,CCN(CC)C(=O)Cn1cc(C(=O)C(=O)NCCCN2CCOCC2)c2ccccc21,7.79
20,CC(C)n1c(O)c(N=NC(=O)c2ccccc2NS(=O)(=O)c2cccs2)c2ccccc21,3.74
21,Cc1cc(C)n(-c2nc3c(c(=O)[nH]c(=O)n3C)n2C)n1,5.33
22,COc1ccc(CC(=O)N2CCN(c3ccccn3)CC2)cc1,15.2
23,Cn1nccc1C(=O)N1CCCC(C(=O)c2cccc3ccccc23)C1 (centres unmarked),10.1

row,Structure (SMILES),"hERG current change (%, negative = inhibition) at 1uM [%]"
1,COc1ccc(NC(=O)CSc2nnc(C3CCCCC3)n2N)cc1,13.2
2,COc1ccc2cc(-c3[nH]ncc3CN3CCCN(c4ccccc4)CC3)ccc2c1,5.8
3,CC(=O)c1cccc(NC(=O)C2CCCN(S(=O)(=O)c3ccc(F)cc3)C2)c1 (centres unmarked),8.41
4,N#Cc1ccccc1CSc1nnc(-c2ccncc2)o1,7.24
5,COCCOC(=O)C1=C(C)NC2=C(C(=O)CCC2)C1c1cc2c(cc1Br)OCO2 (centres unmarked),0.113
6,Cc1ccc(C(=O)OCC(=O)Nc2sc3c(c2C#N)CCCCC3)cc1NC(=O)c1ccco1,-2.73
7,Cc1c(NC(=O)C(C)OC(=O)c2ncc(Cl)c(Cl)c2Cl)c(=O)n(-c2ccccc2)n1C (centres unmarked),13.1
8,Cc1ccc(S(=O)(=O)N(C)C)cc1NC(=O)c1cc(=O)c2ccccc2o1,11.5
9,Cc1ccc([N+](=O)[O-])c(OCCN2CCC(Cc3ccccc3)CC2)c1.O=C(O)C(=O)O,-25.9
10,CCOCCCNC(=O)C1CCC(CNS(=O)(=O)c2cccc3nsnc23)CC1 (centres unmarked),-7.94
11,COC(=O)Cn1c(=O)c2c(nc3n2CC(C)CN3Cc2ccccc2)n(C)c1=O (centres unmarked),-0.484
12,CC(C)N(C(=O)COC(=O)c1ccc(Cl)s1)c1ccccc1,-2.67
13,CN(C/C=C/c1ccccc1)C1CCCCC1,-1.67
14,O=C(O)c1oc2ccccc2c1-n1cccc1,20.9
15,COc1ccccc1-n1c(C)nc2cc(C(=O)O)ccc21,11.4
16,CN(C)S(=O)(=O)c1ccc(N2CCCC2)c(C(=O)Nc2nc3ccc(F)cc3s2)c1,2.58
17,FC(F)(F)c1ccc2nnc(-c3c(Cl)cccc3Cl)n2c1,1.13
18,Cc1noc(C)c1COc1ccccc1C(=O)N(C)CC(=O)Nc1ccc(F)cc1,-0.158
19,CC(C)(C)c1ccccc1OCCCCN1CCCC1,0.721
20,Cc1cc(C)n2nc(SCC(=O)N(C)c3c(N)n(Cc4ccccc4)c(=O)[nH]c3=O)nc2n1,10.6
